# Experimental data published in PubChem BioAssay AID686978 (National Center for Advancing Translational Sciences (NCATS), 2013).
# Screen size: about 420,000 compounds; about 64,000 (15%) were called active. Inconclusive results, whose numbers are uncertain, are shown with a selection of clear calls. Calls come from the whole dose curve; as a rule, active = well fitted inhibition curve with a large enough effect; inconclusive = small, poorly fitted or top-dose-only effect; inactive = flat fitted curve, though single readings scatter. No potency is given beside an inconclusive call; the fits are too rough.
# Assay: qHTS for Inhibitors of human tyrosyl-DNA phosphodiesterase 1 (TDP1): qHTS in cells in absence of CPT; note: nearly all actives have a fitted effect of over 55% in size
# Details: DT40 Tdp1-/- hTDP1 cells, no CPT, ATP luminescence, 48 h; activity change, negative = growth inhibition: at 46.2 µM (top of the series) unless noted
# How it was run: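 Chicken DT40 Tdp1-/- cells complemented with human TDP1, screened without camptothecin (DMSO vehicle only), 400 cells/well. Compounds pin-transferred, cells incubated at 37 °C for at least 48 hr. Growth read as ATP-dependent luminescence (CellTiter-Glo, 30 min at RT).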
# % is set by controls: 0 for no effect and ±100 for the full control effect; potency is the fitted concentration of half-maximal effect; tags give direction and shape of the fitted curve.
Compound,Potency,"activity change, negative = growth inhibition"
C=Cc1cnc([N+](=O)[O-])n1C,"inconclusive [inhibitor, partial curve]",
COc1ccccc1N(CC(O)CN1CCCCC1)S(=O)(=O)c1ccc(C)cc1 (configuration not stated),,inactive: -16.4%
Cc1cc(OC(=O)C(c2ccccc2)c2ccccc2)c([N+](=O)[O-])c(=O)[nH]1,,inactive: 0.101%
COc1ccc(CCNC(=S)N2CCC(Cc3ccccc3)CC2)cc1OC,"inconclusive [inhibitor, partial curve]",
CCC(C)Sc1ccc([C@H]2N[C@@](C)(C(=O)OC)[C@H]3C(=O)N(CC)C(=O)[C@@H]23)cc1OC (some centres not stated),"inconclusive [inhibitor, single point]",
CC(=O)N1CCC2(CCCN(c3ccccn3)C2)CC1,,inactive: -15.2%
COc1ccccc1NC(=S)N/N=C/c1ccc(O)cc1,active: 5.8 µM,
N=c1c(C(=O)NC2CCCCC2)cc2c(=O)n3ccccc3nc2n1CC1CCCO1 (configuration not stated),"inconclusive [inhibitor, single point]",
O=C(O)c1n[nH]c2c1CC(C1CCCCC1)CC2 (configuration not stated),,inactive: -8.86%
Cn1c(N)c(-c2ccccc2)c2ccc([N+](=O)[O-])cc2c1=O,"inconclusive [inhibitor, single point]",
CCOC(=O)c1ccc(NS(=O)(=O)c2ccc3c(c2)oc(=O)n3C)cc1,"inconclusive [inhibitor, partial curve, poor fit]",
CCOc1ccc2oc(=O)cc(CN3CCN(c4ccccc4OC)CC3)c2c1,"inconclusive [inhibitor, single point]",
OCCn1cnc2c(SCc3ccccc3)ncnc21,,inactive: 0.329%
N#C[C@H](Cc1ccc(O)cc1)c1ccc(O)cc1,,inconclusive: -30.8% [inhibitor]
C=C(C)[C@@H]1CC=C(CN2CCC(CCOC)(C(=O)OCC)CC2)CC1,"inconclusive [inhibitor, partial curve]",
O=C(NCc1cccnc1)c1cc(C2CCCCN2C(=O)c2ccc(Cl)cc2)on1 (configuration not stated),,inactive: -27.9%
FC(F)(F)c1ccccc1-c1nc(NC2CCNCC2)c2ccccc2n1,"inconclusive [inhibitor, partial curve, poor fit]",
Cc1ccccc1NC(=O)COc1ccccc1C(=O)Nc1ccccc1,,inactive: -29.8%
CC(C)[C@H](CO)Nc1nc(Nc2ccc(C(=O)O)c(Cl)c2)c2ncn(C(C)C)c2n1,,inactive: -0.899%
Cc1ccc(-c2nnn(CC(=O)N(CC(=O)NCc3ccccc3)c3cccc(C)c3C)n2)o1,"inconclusive [inhibitor, partial curve]",
Cc1ccc2cccc(S(=O)(=O)N3CCCc4ccccc43)c2n1,"inconclusive [inhibitor, single point]",
CC(C)(Oc1ccc(Cl)cc1)C(=O)NC1CC1,"inconclusive [inhibitor, single point]",
CCCNC(=O)C1(C)CCN1C(=O)Cc1ccc(C(C)C)cc1 (configuration not stated),"inconclusive [inhibitor, single point]",
Cc1ccc(CSc2nc(-c3ccccc3C)nc3c2Cc2c(CO)cnc(C)c2O3)cc1,"inconclusive [inhibitor, single point]",

Compound,Potency,"activity change, negative = growth inhibition"
CC(C)c1ccc(CNc2n[nH]c(-c3ccco3)n2)cc1,"inconclusive [inhibitor, single point]",
COc1ccc(CNC(=O)c2cc(-c3cccs3)on2)cc1,,inactive: -29.5%
COc1ccc(CNC(=O)N2CCN(S(=O)(=O)c3ccc(C)cc3C)CC2)cc1,,inactive: -28.7%
CC(C)Oc1ccc(CNC(=O)Cn2nc(N3CCN(c4ccccc4)CC3)ccc2=O)cc1,"inconclusive [inhibitor, single point]",
O=C(CCc1ccc(S(=O)(=O)N2CCOCC2)cc1)N/N=C/c1ccc(O)c(O)c1O,"inconclusive [inhibitor, single point]",
CCCCn1c(=N)n(CCOc2ccccc2OC)c2ccccc21,active: 4.11 µM,
CCCS(=O)(=O)c1nc(S(=O)(=O)c2ccc(C)cc2)c(N2CCCC(C)C2)s1 (configuration not stated),"inconclusive [inhibitor, single point]",
CCOC(=O)C1CCCN(C(=O)c2ccc3sccc3c2)CC1 (configuration not stated),"inconclusive [inhibitor, single point]",
O=S(=O)(Nc1cccc(Cl)c1)c1ccc2oc(=S)[nH]c2c1,,inactive: -12%
CC1CC(C)CN(S(=O)(=O)c2ccc(C(=O)Nc3nnc(C4CC4)o3)cc2)C1 (configuration not stated),"inconclusive [inhibitor, single point]",
CCOc1ccc(-c2nc(SCC(=O)Nc3cc(F)ccc3F)n3[nH]c(=O)cc3n2)cc1,,inactive: -12.2%
CN(CC(=O)Nc1ccc(F)cc1)C(=O)CN1C(=O)c2cccc([N+](=O)[O-])c2C1=O,,inactive: 6.45%
COc1ccc(-c2ccc(=O)n(CC(=O)Nc3ccc(OC)c(OC)c3)n2)cc1,,inactive: -26.2%
COc1ccc(N(C(=O)c2snc(C(N)=O)c2N)C(C(=O)NC2CCCC2)c2ccc(C)o2)c(OC)c1 (configuration not stated),"inconclusive [inhibitor, partial curve]",
N#Cc1ccc(C(=O)Nc2cc(S(=O)(=O)N3CCOCC3)ccc2N2CCOCC2)cc1,,inactive: -1.15%
COc1ccccc1CNC(=O)[C@H](Cc1c[nH]c2ccccc12)NC(=O)[C@@H]1Cc2ccccc2CN1,"inconclusive [inhibitor, single point]",
Cc1ccc(CN2CC(=O)N3[C@H]4c5cc(Cl)ccc5OC[C@@H]4[C@H](c4ccccc4)[C@]3(C)C2=O)cc1,"inconclusive [inhibitor, single point]",
CSc1nc2cc(C)nn2c(-c2ccccc2Cl)c1C#N,,inactive: 7.17%
O=C(O)C1C2C=CC(O2)C1C(=O)Nc1cccc(C(F)(F)F)c1 (configuration not stated),,inactive: 9.83%
O=C(Nc1cccnc1)Nc1ccc(Br)cc1Cl,"inconclusive [inhibitor, single point]",
CCn1nnc2cc(C(=O)Nc3ccc(Br)cc3F)ccc21,,inactive: -19.2%
O=C(CCl)NCCCCCCCCCNC(=O)CCl,active: 6.51 µM,
CC1C(=O)c2ccccc2CC1C(=O)O (configuration not stated),,inactive: -10.4%
